Measurements taken from PMC4336329 (PLoS ONE, 2015).
The campaign covered roughly 310,000 compounds. About 2,200 (0.71%) showed an effect of 50% or more. The effect is printed as a negative number. Some of the results follow.

The compounds below were run against human ether-à-go-go-related gene (hERG) potassium channel (human, UniProt Q12809) (assay: primary screen, population patch clamp on CHO cells stably expressing hERG).
human ether-à-go-go-related gene (hERG) potassium channel, sequence (Q12809 whole entry, looked up): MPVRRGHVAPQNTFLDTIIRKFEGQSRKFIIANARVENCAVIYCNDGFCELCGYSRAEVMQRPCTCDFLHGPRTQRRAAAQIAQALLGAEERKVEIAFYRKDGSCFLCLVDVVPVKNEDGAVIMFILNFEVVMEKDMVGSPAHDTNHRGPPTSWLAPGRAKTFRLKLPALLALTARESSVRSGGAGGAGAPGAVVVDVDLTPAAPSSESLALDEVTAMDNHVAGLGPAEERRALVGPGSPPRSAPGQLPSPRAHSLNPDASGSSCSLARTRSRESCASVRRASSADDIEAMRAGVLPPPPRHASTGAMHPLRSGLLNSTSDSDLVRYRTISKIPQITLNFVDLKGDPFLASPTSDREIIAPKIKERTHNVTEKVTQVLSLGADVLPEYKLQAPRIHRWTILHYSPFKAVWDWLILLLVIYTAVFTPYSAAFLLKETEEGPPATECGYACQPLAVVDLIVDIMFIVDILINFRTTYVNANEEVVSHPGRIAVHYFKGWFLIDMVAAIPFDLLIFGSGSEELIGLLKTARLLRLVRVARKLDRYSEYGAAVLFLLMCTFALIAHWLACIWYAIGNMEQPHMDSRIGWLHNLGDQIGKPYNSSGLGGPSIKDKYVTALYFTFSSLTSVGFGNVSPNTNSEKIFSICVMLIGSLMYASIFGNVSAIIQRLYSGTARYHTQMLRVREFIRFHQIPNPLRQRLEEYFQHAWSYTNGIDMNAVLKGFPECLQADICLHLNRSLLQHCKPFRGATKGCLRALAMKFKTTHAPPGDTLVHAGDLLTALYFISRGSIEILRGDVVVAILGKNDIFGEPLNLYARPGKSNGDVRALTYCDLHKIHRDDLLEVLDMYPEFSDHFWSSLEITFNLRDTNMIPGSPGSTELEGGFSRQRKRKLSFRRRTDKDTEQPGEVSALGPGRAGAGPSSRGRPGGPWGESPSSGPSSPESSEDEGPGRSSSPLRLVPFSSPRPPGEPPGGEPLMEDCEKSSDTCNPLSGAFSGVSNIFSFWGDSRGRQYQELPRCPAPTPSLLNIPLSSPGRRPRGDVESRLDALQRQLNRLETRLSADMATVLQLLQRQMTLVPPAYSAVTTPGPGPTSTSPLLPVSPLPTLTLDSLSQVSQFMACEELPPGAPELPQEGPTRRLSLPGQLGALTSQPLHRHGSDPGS

Row | SMILES | hERG current change (%, negative = inhibition) at 1uM [%]
1 | Cc1ccc(C(=O)N/C(=C/c2ccccc2)C(=O)NCc2ccncc2)cc1 | -37.7
2 | COc1cccc(/C=N/N2CCOCC2)c1O | 4.89
3 | CCOC(=O)c1c(CN2CCOCC2)n(-c2ccccc2)c2ccc(O)cc12 | -2.45
4 | CC(C)[C@H](NC(=O)Nc1ccccc1F)C(=O)O | 14.7
5 | COc1cc(/C=N/Nc2ccc(S(N)(=O)=O)cc2[N+](=O)[O-])cc(OC)c1O | 8.03
6 | C=CCSc1nc2ccccc2c(=O)n1Cc1ccccc1 | -0.438
7 | CSc1nc2ccc(NC(=O)CSc3nnc(N)s3)cc2s1 | 4.94
8 | CN(C)CCCN(C(=O)COc1ccccc1)c1nc2ccc(F)cc2s1.Cl | -20.6
9 | Cc1cccc(-n2c(CNC(=O)Cc3ccccc3)n[nH]c2=S)c1 | 9.93
10 | COc1ccc(OC)c(NC2c3ncccc3C(=O)N2Cc2ccco2)c1 (centres unmarked) | 1.72
11 | COc1cccc(CN(C)CC(=O)NCc2ccccc2Cl)c1 | 14.6
12 | CCOC(=O)c1nn(-c2ccc(F)cc2)c(=O)cc1OCC(=O)Nc1cccc(C)c1 | 10.1
13 | O=C(CSc1nc(-c2ccccc2)c(-c2ccccc2)o1)NC1CCS(=O)(=O)C1 (centres unmarked) | -6.47
14 | COc1ccc(NC(=O)C2CCN(S(=O)(=O)c3c(C)noc3/C=C/N(C)C)CC2)cc1 | 3.14
15 | CC(C)Cc1ccc(/C=C/C(=O)NC2CC2)cc1 | -0.331
16 | O=C(NCC1CCCO1)c1ccc(Cl)c(S(=O)(=O)N2CCCCC2)c1 (centres unmarked) | -6.97
17 | Cc1ccc(NC(=O)C/C(N)=N/OC(=O)c2ccccc2)cc1 | 22
18 | CCc1cccc(CC)c1NC(=O)CSc1nnc(C(C)C)n1CC | 11.1
19 | O=C(COC(=O)c1ccc(S(=O)(=O)N2CCCC2)cc1)NCc1ccco1 | 4.7
20 | COc1ccc(CCn2c(C)cc3c(c2=O)C(c2ccc4c(c2)OCO4)C(C#N)=C(N)O3)cc1OC (centres unmarked) | 1.14
21 | CCOc1ccc(C(C)=O)cc1COC(=O)c1cnc(Cl)c(Cl)c1 | 10.1
22 | CCN(CC)C(=O)COCc1cc(-c2ccc3c(c2)OCO3)on1 | 11

Row | SMILES | hERG current change (%, negative = inhibition) at 1uM [%]
23 | CCn1cc(C(=O)OC)c(=O)c2cc(S(=O)(=O)N(C)C3CCCCC3)ccc21 | 3.91
24 | CCOc1cc(C2NC(=O)NC(c3ccccc3)=C2C(C)=O)ccc1OC(C)=O (centres unmarked) | 20.6
25 | CC(C)(C)n1cnc2cc(NC(=O)c3ccccc3)ccc21 | 10.9
26 | CCOC(=O)N1CCN(S(=O)(=O)c2ccc3c(c2)CCN3C(=O)C2CCC2)CC1 | 4.95
27 | Cc1cc([N+](=O)[O-])ccc1NC(=S)NC1CCCC1 | 7.52
28 | Cc1cc(C)cc(CC2CC(=O)N(c3ccc4c(c3)OCCO4)C2=O)c1 (centres unmarked) | 9.97
29 | COc1cc(CN2CCNC(=O)C2CC(=O)NC2CCCCC2)cc(OC)c1 (centres unmarked) | 5.85
30 | CC(=O)N1c2ccc(S(=O)(=O)N3CCCC(C(=O)Nc4ccc(F)cc4)C3)cc2CC1C (centres unmarked) | 9.36
31 | O=C1CCCc2c1cc(-c1ccccc1)n2-c1ccc(O)cc1 | 6.74
32 | Cc1cc(C)cc(NC(=O)CSc2nnc(CNC(=O)c3ccco3)n2C)c1 | 14.2
33 | O=C(NC(=S)Nc1ccc(S(=O)(=O)Nc2nccs2)cc1)c1ccccc1F | 19.6
34 | CCOC(=O)N1CCC(NC(=O)Cn2c3c(c(-c4ccccc4Cl)cc2=O)CCC3)CC1 | 9.3
35 | COc1cccc(CN2CCNC(=O)C2CC(=O)N(C)CCc2ccccn2)c1OC (centres unmarked) | 12.6
36 | COc1ccc(NC(=O)CCN2CCN(S(=O)(=O)c3cc(Cl)ccc3Cl)CC2)cc1 | 3.07
37 | O=C(NCC1CCCCC1)c1cc(S(=O)(=O)N2CCOCC2)ccc1F | 11.2
38 | CCOC(=O)C1CCN(c2c(NCCCN(CC)Cc3ccccc3)c(=O)c2=O)CC1 | -6.06
39 | CC(OC(=O)CNC(=O)c1cccs1)C(=O)Nc1ccc(S(N)(=O)=O)cc1 (centres unmarked) | 4.95
40 | Cc1cc(C)nc(Nc2n[nH]c(-c3ccccc3C)n2)n1 | -2.47
41 | CCOC(=O)CCc1c(C)nc(SCc2ccc(C(=O)O)cc2)c(C#N)c1C | 8.92
42 | O=C(Cn1nc2n(c1=O)-c1ccccc1SC2)N/N=C/c1cccnc1 | 2.47
43 | COc1ccc(-c2ccc(CCC(=O)O)n2-c2ccc(O)cc2)cc1 | 8.91
44 | CCC(C)(C(=O)NC1CCCC1)N(C(=O)c1cnccn1)c1ccccc1 (centres unmarked) | 10.3
